The results in this text go back to PMC12040169 (PLOS Biology, 2025).

The other results are listed elsewhere or left out.

In the assay the test system is T1, C. trachomatis L2/434/Bu expressing GFP (CTL2-GFP).
T1 construct: L2/434/Bu GFP intracellular growth in HeLa cells
Details: species or system HeLa; C. trachomatis total inclusion area by high-content imaging, normalised to DMSO. Particulars: total inclusion area; 28.5 h, 10 µM; inhibitor. In short, it runs like this: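 Host cell viability was gauged from Hoechst-stained nuclei counts, while chlamydial growth was taken from total inclusion area and inclusion number per well. Cells were fixed and imaged by high-content microscopy once bulk GFP and resorufin fluorescence had been measured.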
As to `CCOC(=O)Cn1c(CCC(=O)O)ccc1-c1ccc(F)cc1` [CBK265916], the “% of control remaining” value stood at 118.115. To `COc1ccccc1N1CCN(C[C@H]2C[N@@]3CC[C@H]2C[C@@H]3CNS(C)(=O)=O)CC1` [CBK288770] belongs 109.568; to `COC(=O)C(CC(=O)c1ccc(Br)cc1)n1cccn1` (stereo not shown) [CBK269338], 93.3172. For `O=c1oc2ccccc2n1C1CCN(Cc2nc3ccccc3n2Cc2ccccc2)CC1` [CBK286176] the value was 99.98; for `COc1ccc(OC(=O)C2COc3ccccc3O2)cc1` (stereo not shown) [CBK131816], 94.4414; for `Cc1cccc(NC(=O)c2cc(NC(=O)C3CCCCC3C(=O)O)ccc2N2CCCCC2)c1` (stereo not shown) [CBK267332], 90.4934.

As to `CC(C)NC(=S)NC(=O)C1CCC1` [CBK010718], the “% of control remaining” value is on record as 68.2714. Turning to `COc1ccccc1NC(=S)NCCN(C)C` [CBK265343], the “% of control remaining” value came to 81.8667. To `O=C(O)CSc1nc2nc3c(cc2c(=O)n1Cc1ccccc1)CCCC3` [CBK286662] belongs 78.2693; to `Cn1cccc1CNCc1ccccn1` [CBK269818C], 100.916.

Consider `Cc1ccc(C2(CN3CCC(NC(=O)C4CC4)CC3)CC2)cc1` [CBK285359], for which the “% of control remaining” value is 87.4294. For the molecule `O=C(c1ccco1)N1CCN(c2cc(-c3ccccc3Oc3ccccc3)ncn2)CC1` [CBK037817], the “% of control remaining” value stood at 101.654. Consider `COc1cnc(-c2ccsc2)c(NC(=O)c2cc(C)oc2C)n1` [CBK145294], for which the “% of control remaining” value is reported as 90.8681. To `Cc1nn(C)cc1S(=O)(=O)Nc1ccc2c(ccn2C)c1` [CBK282806] belongs 108.128; to `CCC(NC(=O)Nc1ccc(N2CCOCC2)nc1)c1cnn(CC)c1` (stereo not shown) [CBK305172], 121.486. For `Cc1ccc(NC(=O)CC2Nc3ccccc3OC2=O)cc1C` (stereo not shown) [CBK270214] the value was 94.3496; for `CNC(=O)CSc1ncnc2c1cnn2-c1ccc(F)cc1` [CBK287633], 101.873; for `Cn1c(/N=N/c2c(-c3ccccc3)n(C)c3ccccc23)nc2ccccc21` [CBK262114], 92.0607. To `Cc1noc(C)c1NC(=O)c1cscn1` [CBK200397] belongs 100.44; to `O=C(NCc1cccnc1)c1ccc(N2CCN(C(=O)c3ccccc3C(F)(F)F)CC2)nn1` [CBK153215], 65.7387; to `COc1ccc(Cn2c(=O)n(S(=O)(=O)c3ccc(-c4cc(C(F)(F)F)n(C)n4)s3)c3ccccc32)cc1` [CBK106552], 94.3909. Consider `Nc1nonc1-n1nnc(C(=O)O)c1-c1cccs1` [CBK266674], for which the “% of control remaining” value amounted to 80.5732. For `CCOC(=O)C1CCN(S(=O)(=O)c2c(C)noc2C)CC1` [CBK051112], the “% of control remaining” value was determined as 71.6471. For `O=C(c1ccc(NC2CC2)nc1)N1CCC(CN2CCOCC2)CC1` [CBK305970], the “% of control remaining” value came out at 34.5237. In the case of `Cc1cc(C)nc(Nc2noc(-c3ccccc3)n2)n1` [CBK269971], the “% of control remaining” value came to 73.6402. For `CC(=O)OCc1ccc(CN2CCCCCC2c2cc(C)no2)o1` (stereo not shown) [CBK283007] the value was 116.199. To `COc1ccc2[nH]c3c(c2c1)CCNC31CCN(Cc2ccc(S(C)(=O)=O)cc2)CC1` [CBK039753] belongs 92.2588; to `CCCn1c(O)cc(=O)nc1SCC(=O)NCc1ccc(OC)c(OC)c1` [CBK295592], 92.5056; to `COc1ccc(/N=C2\S[C@H]3[C@H]([C@@H](O)[C@H](O)C[C@@H]3C(N)=O)N2Cc2cccs2)cc1` [CBK288943], 92.5724. For `Nc1ncc(-c2ccc(C(=O)N3CCOCC3)cc2)nc1C(=O)NC1CCCC1` [CBK149155] the value was 79.6254.

For `COc1ccc(-c2nnc(SCCC(=O)O)[nH]2)cc1` [CBK300506], the “% of control remaining” value was 109.618. For `NS(=O)(=O)c1ccc(C(=O)Nc2cnc(-c3ccc(F)cc3)c(-c3ccsc3)n2)cc1` [CBK036998], the “% of control remaining” value is reported as 124.97. To `O=C(CCc1nc2sc3c(c2c(=O)[nH]1)CCCC3)N1CCCC1` [CBK306069] belongs 51.9255. For `NC(=O)C1(Cc2ccccc2-c2ccccc2)CCN(C(=O)CCc2ccccc2)CC1` [CBK285595] the value was 99.2958; for `COc1ccc(C(C)C)cc1-c1cncc(N2CCN(c3ccccc3C#N)CC2)n1` [CBK037927], 83.5928; for `Cc1ccc(S(=O)(=O)NCCNc2ccc(C(F)(F)F)cc2[N+](=O)[O-])cc1` [CBK264945], 104.532. For `CC(C)[C@H]1CN(Cc2ccco2)CCN1Cc1ccccn1` [CBK284275] the value was 88.1973; for `O=c1c2sccc2[nH]c(=S)n1CCc1ccccc1` [CBK288486], 94.9331. Turning to `O=C1c2ccccc2C(=O)N1Cc1ccc(S(=O)(=O)NCc2ccc3c(c2)OCO3)cc1` [CBK264180], the “% of control remaining” value was 108.727.

For the molecule `O=c1cc(N2CCCCC2)cnn1Cc1nccs1` [CBK307678], the “% of control remaining” value stood at 76.1032.
